# Experimental data: a collection of fitness landscapes (doi:10.1126/science.1257360)
# The list shows a part of the results.
# B1: PhoQ; a variant is named by its letters at X, in order, P23837 (parent)
# chain: MKKLLRLFFPLSLRVRFLLATAAVVLVLSLAYGMVALIGYSVSFDKTTFRLLRGESNLFYTLAKWENNKLHVELPENIDKQSPTMTLIYDENGQLLWAQRDVPWLMKMIQPDWLKSNGFHEIEADVNDTSLLLSGDHSIQQQLQEVREDDDDAEMTHSVAVNVYPATSRMPKLTIVVVDTIPVELKSSYMVWSWFIYVLSANLLLVIPLLWVAAWWSLRPIEALAKEVRELEEHNRELLNPATTRELTSLVRNLNRLLKSERERYDKYRTTLTDLTHSLKTPLXXLQXXLRSLRSEKMSVSDAEPVMLEQISRISQQIGYYLHRASMRGGTLLSRELHPVAPLLDNLTSALNKVYQRKGVNISLDISPEISFVGEQNDFVEVMGNVLDNACKYCLEFVEISARQTDEHLYIVVEDDGPGIPLSKREVIFDRGQRVDTLRPGQGVGLAVAREITEQYEGKIVAGESMLGGARMEVIFGRQHSAPKDE
# Variants of: B1
# Experiment: enrichment ratio after two sorts for PhoP signalling (ratio (wild type AVST 3.29)); higher = more functional
# Conditions: with PhoP (E. coli)
row,Variant,enrichment ratio
1,TSAC,10.9
2,KNPS,≤ 0.25
3,KMLS,≤ 0.25
4,DYSA,≤ 0.25
5,EENG,≤ 0.25
6,VTST,≤ 0.25
7,PYMT,≤ 0.25
8,QVFR,≤ 0.25
9,FFCL,≤ 0.25
10,DCLA,≤ 0.25
11,RNPW,≤ 0.25
12,LMTV,≤ 0.25
13,HPAM,≤ 0.25
14,LYFY,≤ 0.25
15,YRNE,≤ 0.25
16,DYEG,≤ 0.25
17,WNHG,≤ 0.25
18,ILRG,≤ 0.25
19,YDNP,≤ 0.25
20,HRPL,≤ 0.25
21,AEEF,≤ 0.25
22,FHIL,≤ 0.25
23,YKYM,≤ 0.25
24,WNSQ,≤ 0.25

row,Variant,enrichment ratio
1,MQIS,≤ 0.25
2,DPLM,≤ 0.25
3,FAGF,≤ 0.25
4,FNST,≤ 0.25
5,PWPI,≤ 0.25
6,LDHL,≤ 0.25
7,KAFA,≤ 0.25
8,TCFW,≤ 0.25
9,FYAS,≤ 0.25
10,SPWW,≤ 0.25
11,FTLW,≤ 0.25
12,NVAL,≤ 0.25
13,IMMV,≤ 0.25
14,WMAN,≤ 0.25
15,GVLC,5.21
16,HNVM,≤ 0.25
17,AWRA,≤ 0.25
18,FNYE,≤ 0.25
19,HAHN,≤ 0.25
20,FNCW,≤ 0.25
21,HMDP,≤ 0.25
22,TWDV,≤ 0.25
23,LVWM,≤ 0.25
24,YPGC,≤ 0.25

row,Variant,enrichment ratio
1,QYLE,≤ 0.25
2,KAWE,≤ 0.25
3,FMCD,≤ 0.25
4,QAHV,≤ 0.25
5,TRAE,≤ 0.25
6,GCNT,≤ 0.25
7,KRAT,≤ 0.25
8,WDLK,≤ 0.25
9,PYMN,≤ 0.25
10,FQTT,≤ 0.25
11,QSLN,≤ 0.25
12,AEPH,≤ 0.25
13,LSTI,≤ 0.25
14,ALRW,≤ 0.25
15,PERA,≤ 0.25
16,GMTD,≤ 0.25
17,LLGM,≤ 0.25
18,RPQF,≤ 0.25
19,FAGN,≤ 0.25
20,WKKV,≤ 0.25
21,HVSG,≤ 0.25
22,HYAR,≤ 0.25
23,HMIN,≤ 0.25
24,KHYA,≤ 0.25

row,Variant,enrichment ratio
1,WFEY,≤ 0.25
2,EYNM,≤ 0.25
3,WYQY,≤ 0.25
4,KTHR,≤ 0.25
5,KCRL,≤ 0.25
6,PKIR,≤ 0.25
7,PNDQ,≤ 0.25
8,QYDH,0.815
9,YLYY,≤ 0.25
10,VWNI,≤ 0.25
11,PLAF,≤ 0.25
12,LLDN,≤ 0.25
13,NNFA,≤ 0.25
14,KIKW,≤ 0.25
15,VENP,≤ 0.25
16,EMVE,≤ 0.25
17,LRNH,≤ 0.25
18,TPCT,≤ 0.25
19,MHEG,≤ 0.25
20,FEKL,≤ 0.25
21,YICV,4.39
22,VLWE,≤ 0.25
23,DYST,≤ 0.25
24,MGVW,≤ 0.25

row,Variant,enrichment ratio
1,NWEG,≤ 0.25
2,QQFI,3.9
3,AWFP,≤ 0.25
4,GRHV,≤ 0.25
5,THVS,≤ 0.25
6,GYEL,≤ 0.25
7,MDLY,≤ 0.25
8,SSKY,≤ 0.25
9,PKPI,≤ 0.25
10,SCAT,16.1
11,YINK,≤ 0.25
12,NKCQ,≤ 0.25
13,WSSQ,≤ 0.25
14,HVKS,≤ 0.25
15,HCQL,≤ 0.25
16,KISN,≤ 0.25
17,IKRW,0.863
18,HQFY,≤ 0.25
19,SREI,≤ 0.25
20,KLIT,≤ 0.25
21,VYGY,≤ 0.25
22,IWNF,≤ 0.25
23,DKAI,≤ 0.25
24,APGI,≤ 0.25

row,Variant,enrichment ratio
1,YVPC,≤ 0.25
2,QMWC,≤ 0.25
3,KSPQ,≤ 0.25
4,DDSF,≤ 0.25
5,ARVV,0.976
6,EFNW,≤ 0.25
7,VIPA,≤ 0.25
8,TREI,≤ 0.25
9,TDQQ,≤ 0.25
10,VSIE,≤ 0.25
11,ELHN,≤ 0.25
12,IHQQ,≤ 0.25
13,FFTH,≤ 0.25
14,WLKT,≤ 0.25
15,DQLH,≤ 0.25
16,DIPC,≤ 0.25
17,MSMT,≤ 0.25
18,HPDA,≤ 0.25
19,DEGF,≤ 0.25
20,IPTT,≤ 0.25
21,YMLL,≤ 0.25
22,KYPA,≤ 0.25
23,VHPV,≤ 0.25
24,GCYL,≤ 0.25

row,Variant,enrichment ratio
1,VNMR,≤ 0.25
2,QRYW,≤ 0.25
3,NCWE,≤ 0.25
4,WKIY,≤ 0.25
5,WNML,≤ 0.25
6,GNWG,≤ 0.25
7,GWMQ,≤ 0.25
8,YSCP,≤ 0.25
9,SRCF,≤ 0.25
10,SLFQ,≤ 0.25
11,WKAE,≤ 0.25
12,VTYK,≤ 0.25
13,EYSS,≤ 0.25
14,NCCK,≤ 0.25
15,NSEM,≤ 0.25
16,PTQE,≤ 0.25
17,WLST,≤ 0.25
18,SKAH,2.14
19,LWWL,≤ 0.25
20,GTNI,≤ 0.25
21,IWLH,≤ 0.25
22,VNAG,≤ 0.25
23,YVYN,≤ 0.25
24,VAHR,≤ 0.25

row,Variant,enrichment ratio
1,QPWP,≤ 0.25
2,MRPA,≤ 0.25
3,FFAP,≤ 0.25
4,KRIG,≤ 0.25
5,AIAG,12.5
6,AFHR,≤ 0.25
7,EQTM,≤ 0.25
8,ERLG,≤ 0.25
9,DALD,≤ 0.25
10,HSRG,≤ 0.25
11,NDKR,≤ 0.25
12,VFFL,0.347
13,EQHI,≤ 0.25
14,DETS,≤ 0.25
15,RFVP,≤ 0.25
16,VFQP,≤ 0.25
17,DNFS,≤ 0.25
18,DFII,≤ 0.25
19,LTWK,≤ 0.25
20,EMCD,≤ 0.25
21,MWRN,≤ 0.25
22,FKNT,≤ 0.25
23,QHMN,≤ 0.25
24,SCSY,9.45

row,Variant,enrichment ratio
1,IIRN,≤ 0.25
2,TKAI,8.08
3,NRYG,≤ 0.25
4,LDRN,≤ 0.25
5,MKAY,≤ 0.25
6,QPTI,≤ 0.25
7,RECY,≤ 0.25
8,IHLN,≤ 0.25
9,NMAC,≤ 0.25
10,QYKG,≤ 0.25
11,LHDM,≤ 0.25
12,SDNM,≤ 0.25
13,ASIS,7.49
14,EEMR,≤ 0.25
15,TGVD,≤ 0.25
16,DTRG,≤ 0.25
17,TAGK,≤ 0.25
18,LMPH,0.42
19,VFTV,≤ 0.25
20,EECY,≤ 0.25
21,PQNS,≤ 0.25
22,RGVS,≤ 0.25
23,TVFK,≤ 0.25
24,NDTS,≤ 0.25

row,Variant,enrichment ratio
1,AMFK,≤ 0.25
2,DPMK,≤ 0.25
3,RNAQ,≤ 0.25
4,EHFT,≤ 0.25
5,FMPE,≤ 0.25
6,DFTK,≤ 0.25
7,TIDL,≤ 0.25
8,VPKC,≤ 0.25
9,SVPE,≤ 0.25
10,YFLQ,≤ 0.25
11,NWET,≤ 0.25
12,FSHV,≤ 0.25
13,HDLG,≤ 0.25
14,YIPL,≤ 0.25
15,LHTK,≤ 0.25
16,SMIE,≤ 0.25
17,GPHQ,≤ 0.25
18,LRVS,≤ 0.25
19,DSFG,≤ 0.25
20,QHPN,≤ 0.25
21,RNYN,≤ 0.25
22,KELI,≤ 0.25
23,YNCA,0.384
24,GFRR,≤ 0.25

row,Variant,enrichment ratio
1,VGYV,≤ 0.25
2,PRNF,≤ 0.25
3,PNPY,≤ 0.25
4,HMKY,≤ 0.25
5,YCHM,≤ 0.25
6,QMQW,≤ 0.25
7,IMDV,≤ 0.25
8,NGHY,≤ 0.25
9,WLYK,≤ 0.25
10,NWWK,≤ 0.25
11,EMPV,≤ 0.25
12,DNKS,≤ 0.25
13,HEHR,≤ 0.25
14,TKPH,≤ 0.25
15,RLQI,≤ 0.25
16,RLFL,≤ 0.25
17,TRPG,≤ 0.25
18,HYRR,≤ 0.25
19,FLYQ,≤ 0.25
20,CLCC,≤ 0.25
21,NSSW,≤ 0.25
22,EPVY,≤ 0.25
23,VNID,≤ 0.25
24,PTSK,≤ 0.25

row,Variant,enrichment ratio
1,KRFW,≤ 0.25
2,AWSG,≤ 0.25
3,TDLV,8.9
4,HKNL,≤ 0.25
5,FPCG,≤ 0.25
6,PIKV,≤ 0.25
7,WFGF,≤ 0.25
8,EHRD,1.35
9,DNLF,≤ 0.25
10,TCHS,0.799
11,GHFR,≤ 0.25
12,AMPV,≤ 0.25
13,AVSM,11.3
14,LNSH,≤ 0.25
15,IWVW,≤ 0.25
16,AVIC,1.38
17,MHLT,≤ 0.25
18,SCLL,7.53
19,FKMS,0.264
20,DAVT,≤ 0.25
21,AMNL,3.05
22,QYGW,≤ 0.25
23,NCSV,≤ 0.25
24,DNTV,≤ 0.25

row,Variant,enrichment ratio
1,GMLP,≤ 0.25
2,VDPT,≤ 0.25
3,VFHN,≤ 0.25
4,FDMW,≤ 0.25
5,NQFY,0.914
6,VHIK,≤ 0.25
7,TPEP,≤ 0.25
8,VIAP,0.39
9,PVVI,≤ 0.25
10,VSQN,≤ 0.25
11,DNAP,≤ 0.25
12,HNKI,≤ 0.25
13,YCMK,≤ 0.25
14,KGRE,≤ 0.25
15,WTLM,1.03
16,HSQK,≤ 0.25
17,DSNK,≤ 0.25
18,PFQF,≤ 0.25
